PMC10120551, “Novel Glu-based pyrazolo[3,4-d]pyrimidine analogues: design, synthesis and biological evaluation as DHFR and TS dual inhibitors” (Journal of Enzyme Inhibition and Medicinal Chemistry, 2023)

Assays:
HOP-92 = settings: HOP-92, Non-small cell lung cancer; five-dose 0.01–100 µM
Experimental: (§1) (Figures S53–S56 in Supporting Information). This assay evaluates GI50, TGI, and LC50 parameters, as cited in Table 1. Their values correspondingly represent the GI level, cytostatic impact, and cytotoxicity parameter. Furthermore, based on the GI50 values, the mean graph midpoints (MG-MID) for both full NCI 59 cell panel and subpanel cancer cell lines were evaluated, affording a median potency parameter for the examined compound 6i, as depicted in Table 2.
(§2) The designed analogues were submitted to NCI-Chemotherapeutic Agents Repository (MD, USA) for screening on a panel of 59 cancer cell lines. All compounds were initially examined at 10 µM concentration (Single-Dose Screen), and then the most efficient analogue 6i was screened further at 0.01–100 µM (Five-Dose Screen). The screening procedures were performed according to NCI-Drug Evaluation Branch protocol using SRB protein assay, as described previously[21]^,[66]. The experimental procedures were detailed in the Supporting Information. […]
(§3) inoculation, the microtiter plates are incubated at 37° C, 5 % CO2, 95 % air and 100 % relative humidity for 24 h prior to addition of experimental drugs.
(§4) After 24 h, two plates of each cell line are fixed in situ with TCA, to represent a measurement of the cell population for each cell line at the time of drug addition (Tz). Experimental drugs […]
(§5) are solubilized in dimethyl sulfoxide at 400-fold the desired final maximum test concentration and stored frozen prior to use. At the time of drug addition, an aliquot of frozen concentrate is […]
(§6) thawed and diluted to twice the desired final maximum test concentration with complete medium containing 50 μg/ml gentamicin. Additional four, 10-fold or ½ log serial dilutions are made to provide a total of five drug concentrations plus control. Aliquots of 100 μl of these different drug dilutions are added to the appropriate microtiter wells already containing 100 μl […]
(§7) of medium, resulting in the required final drug concentrations.
(§8) Following drug addition, the plates are incubated for an additional 48 h at 37°C, 5 % CO2, 95 % air, and 100 % relative humidity. For adherent cells, the assay is terminated by the addition […]
(§9) of cold TCA. Cells are fixed in situ by the gentle addition of 50 μl of cold 50 % (w/v) TCA […]
(§10) (final concentration, 10 % TCA) and incubated for 60 minutes at 4°C. The supernatant is […]
(§11) discarded, and the plates are washed five times with tap water and air dried. Sulforhodamine B (SRB) solution (100 μl) at 0.4 % (w/v) in 1 % acetic acid is added to each well, and plates are […]
(§12) incubated for 10 minutes at room temperature. After staining, unbound dye is removed by […]
(§13) washing five times with 1 % acetic acid and the plates are air dried. Bound stain is subsequently […]
(§14) solubilized with 10 mM trizma base, and the absorbance is read on an automated plate reader […]
(§15) at a wavelength of 515 nm. For suspension cells, the methodology is the same except that the […]
(§16) assay is terminated by fixing settled cells at the bottom of the wells by gently adding 50 μl of 80 % TCA (final concentration, 16 % TCA). Using the seven absorbance measurements [time […]
(§17) zero, (Tz), control growth, (C), and test growth in the presence of drug at the five concentration […]
(§18) levels (Ti)], the percentage growth is calculated at each of the drug concentrations levels.
(§19) Percentage growth is calculated as:
(§20) [(Ti-Tz)/(C-Tz)] x 100 for concentrations for which Ti>/=Tz
(§21) [(Ti-Tz)/Tz] x 100 for concentrations for which Ti<Tz.
(§22) Three dose response parameters are calculated for each experimental agent. Growth inhibition […]
(§23) resulting in a 50% reduction in the net protein increase (as measured by SRB staining) in […]
(§24) control cells during the drug incubation. The drug concentration resulting in total growth inhibition (TGI) is calculated from Ti = Tz. The LC50 (concentration of drug resulting in a […]
(§25) 50% reduction in the measured protein at the end of the drug treatment as compared to that at […]
(§26) the beginning) indicating a net loss of cells following treatment is calculated from [(Ti-Tz)/Tz] […]
(§27) x 100 = -50. […]

HOP-62 = settings: HOP-62, Non-small cell lung cancer; five-dose 0.01–100 µM
Experimental: as §1, §2, §3, §4, §5, §6, §7, §8, §9, §10, §11, §12, §13, §14, §15, §16, §17, §18, §19, §20, §21, §22, §23, §24, §25, §26, §27

NCI-H522 = settings: NCI-H522, Non-small cell lung cancer; five-dose 0.01–100 µM
Experimental: as §1, §2, §3, §4, §5, §6, §7, §8, §9, §10, §11, §12, §13, §14, §15, §16, §17, §18, §19, §20, §21, §22, §23, §24, §25, §26, §27

EKVX = settings: Non-small cell lung cancer, five-dose 0.01–100 µM
Experimental: as §1, §2, §3, §4, §5, §6, §7, §8, §9, §10, §11, §12, §13, §14, §15, §16, §17, §18, §19, §20, §21, §22, §23, §24, §25, §26, §27

NCI-H226 = settings: NCI-H226, Non-small cell lung cancer; five-dose 0.01–100 µM
Experimental: as §1, §2, §3, §4, §5, §6, §7, §8, §9, §10, §11, §12, §13, §14, §15, §16, §17, §18, §19, §20, §21, §22, §23, §24, §25, §26, §27

NCI-H23 = settings: NCI-H23, Non-small cell lung cancer; five-dose 0.01–100 µM
Experimental: as §1, §2, §3, §4, §5, §6, §7, §8, §9, §10, §11, §12, §13, §14, §15, §16, §17, §18, §19, §20, §21, §22, §23, §24, §25, §26, §27

A549/ATCC = settings: Non-small cell lung cancer, five-dose 0.01–100 µM
Experimental: as §1, §2, §3, §4, §5, §6, §7, §8, §9, §10, §11, §12, §13, §14, §15, §16, §17, §18, §19, §20, §21, §22, §23, §24, §25, §26, §27

NCI-H460 = settings: NCI-H460, Non-small cell lung cancer; five-dose 0.01–100 µM
Experimental: as §1, §2, §3, §4, §5, §6, §7, §8, §9, §10, §11, §12, §13, §14, §15, §16, §17, §18, §19, §20, §21, §22, §23, §24, §25, §26, §27

NCI-H322M = tested on: NCI-H322M
Experimental: as §1, §2, §3, §4, §5, §6, §7, §8, §9, §10, §11, §12, §13, §14, §15, §16, §17, §18, §19, §20, §21, §22, §23, §24, §25, §26, §27

## CCOC(=O)CC[C@H](NC(=O)c1ccc(NC(=O)Cn2cnc3c(c(C)nn3-c3ccc(Br)cc3)c2=O)cc1)C(=O)OCC [Compound 6i]
HOP-92
  TGI: 23.7 µM
HOP-62
  TGI: 19.8 µM
NCI-H522
  TGI: 38.2 µM
EKVX
  TGI: 27.3 µM
NCI-H226
  TGI: 27.8 µM
NCI-H23
  TGI: 26.7 µM
A549/ATCC
  TGI: 57.3 µM
NCI-H460
  TGI: 34.4 µM
NCI-H322M
  TGI: 66.6 µM
NCI-H322M; Homo sapiens, NCI-H322M
  GI50: 21.3 µM
NCI-H322M; Homo sapiens, NCI-H322M, read-out: LC50
  CC50: > 100 µM
